The other results are listed elsewhere or left out.

The subject of this experiment is PfSIP2 AP2 domain 1 (GST-tagged). Description: gcPBM binding intensity (ln(normalized median fluorescence intensity)); higher = stronger DNA binding. The method, boiled down: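 An Agilent 4 × 180k array of primer-extended double-stranded 36-bp intergenic genomic probes, with negative controls, was incubated for 1 h with GST-tagged P. falciparum DNA-binding domains expressed in E. coli. Alexa488 anti-GST antibody detected bound protein, scanned at 488 nm. Binding intensity is the highest Masliner-normalised natural-log median intensity across replicate spots of either probe orientation.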
For the sequence “ATTTTTTTTTTTTTTTTTTATATGCTCTCCATGAGA [CACACA_negctrl_site1225]”, the “gcPBM binding intensity (ln)” value stood at 6.9.

As to “AAAAAAAAAAAGAAATGTACATGAATATTTTAAATG [XGTACX_site4069]”, the “gcPBM binding intensity (ln)” value amounted to 6.82.

For “CATGCTACATCTTATTGTACTTATCTAATGTTAGTA [XGTACX_site1863]”, the “gcPBM binding intensity (ln)” value was 6.93.

Turning to “AAAAAGGAGAAACACACACACACACCCATATATATA [CACACA_site905]”, the “gcPBM binding intensity (ln)” value came out at 7.65.

In the case of “AGGCAATATTATATATATATATATATATATATATAT [CACACA_negctrl_site826]”, the “gcPBM binding intensity (ln)” value was found to be 9.49.

Turning to “TCTTTTTACACCTCTTACATAAAACAAAATAAGGGG [XGTACX_negctrl_site12]”, the “gcPBM binding intensity (ln)” value is 8.02.

For the sequence “TATACATGTTATGTACATCTAATCACACGTGCAATA [CACACA_negctrl_site1267]”, the “gcPBM binding intensity (ln)” value was found to be 7.16.

Regarding “TTGTAAATTTACATTTGTACATAAATATATTAATAT [XGTACX_site3969]”, the “gcPBM binding intensity (ln)” value was found to be 7.14.

As to “ATATATATAAAACACACACACACATGGTTTAAAACT [CACACA_site4219]”, the “gcPBM binding intensity (ln)” value came out at 7.4.

As to “TGTATGTTTGGGTGCACACATAAATATTATATATAG [CACACA_site3397]”, the “gcPBM binding intensity (ln)” value came to 12.2.

“TATAAAATAAAAAATATATATATGTATATATATATA [TGCATGCA_negctrl_site163]”: the “gcPBM binding intensity (ln)” value was found to be 9.23.

On to “ATTATTTTATATACATGTACATATTATATATAAAAG [XGTACX_site2735]”, for which the “gcPBM binding intensity (ln)” value was determined as 7.05.

In the case of “CACACTTTTTAAATTAACGCATTTCAAAAAAAATAT [CACACA_negctrl_site84]”, the “gcPBM binding intensity (ln)” value was determined as 6.96.

As to “TATTTATACACGCACACACACTTATACATTTATATA [CACACA_site7543]”, the “gcPBM binding intensity (ln)” value worked out at 7.47.

Regarding “TTTCTTTTTTAGAGGTGTACACGTAGGCCTCTTGGA [XGTACX_site4760]”, the “gcPBM binding intensity (ln)” value worked out at 7.3.

Regarding “TTAGATATTAATATATGTACATATTAATATATTTAC [XGTACX_site7119]”, the “gcPBM binding intensity (ln)” value stood at 6.9.

Take “TAAATGTAAAACGAAATGCACACTATGGAAAATATA [CACACA_site724]”: the “gcPBM binding intensity (ln)” value was found to be 8.68.

With “GGAATATTATTTCAATGTACATTTTGAGATTAGAAT [XGTACX_site8187]”, the “gcPBM binding intensity (ln)” value was determined as 7.02.

As to “ATTATTATTTTACGTAGTACATATAATAAATATTTA [XGTACX_site8934]”, the “gcPBM binding intensity (ln)” value worked out at 6.86.

“TTATTTCTAATTCGTTGTACAATATATAATATATAT [XGTACX_site5861]”: the “gcPBM binding intensity (ln)” value was 7.34.

As to “TATCCATATTTGTTCACACACACACGGATTTATATA [CACACA_site7649]”, the “gcPBM binding intensity (ln)” value turned out to be 7.13.

As for “TTGATAGACACATGCACACATGCAATACTTTATTCA [CACACA_site3000]”, the “gcPBM binding intensity (ln)” value came out at 8.16.

Turning to “TAGGTGTTAAAAAATACACACACAAAAAAAAAAAAA [CACACA_site7927]”, the “gcPBM binding intensity (ln)” value turned out to be 7.01.

Consider ACATTTTTGGTTTTAGTGCAATATGAATTATTTTAT, for which the “gcPBM binding intensity (ln)” value was 7.85.

With “TCTTCCATTTTTATTACACACATAAATATGAAATCG [CACACA_site3471]”, the “gcPBM binding intensity (ln)” value amounted to 7.26.

For the sequence “CCTTTAAGCAAAAACACACACACATATATATATATA [CACACA_site348]”, the “gcPBM binding intensity (ln)” value was found to be 9.12.

As for “AGTTTTATATTTCTGAGTACTTATGAATCTAGCTCG [XGTACX_site4330]”, the “gcPBM binding intensity (ln)” value is 6.82.

Regarding “TTTTTTTTTTTTTTTACACACATTTTAATAATTTTA [CACACA_site1492]”, the “gcPBM binding intensity (ln)” value was 7.01.

As for “TTGTAAAAAATTCATACACACGTCTTATTTTTAAGA [CACACA_site8390]”, the “gcPBM binding intensity (ln)” value was 6.83.

In the case of “ATTTTTTCTAAAAGTTGTACATTAAAACGTGTTCAC [XGTACX_site4803]”, the “gcPBM binding intensity (ln)” value worked out at 7.16.

Consider “AAGACTCTTTGTCCTTGTACATATATTTTTATGTTT [XGTACX_site3711]”, for which the “gcPBM binding intensity (ln)” value is 6.78.

With “TTTATATAATATGAATGTACTTATATATTTATAGAC [XGTACX_site3261]”, the “gcPBM binding intensity (ln)” value was determined as 7.6.

For “TATTTATTCTCCAACACACACACATATATATATATA [CACACA_site2894]”, the “gcPBM binding intensity (ln)” value came to 9.11.

“AAAATGAATTTAAAATGTACTTTTTCTAAAGAGTAA [XGTACX_site2337]”: the “gcPBM binding intensity (ln)” value stood at 6.96.

As for “TTATAGGTGCTTCGTAGTACATAAAAATAATATATA [XGTACX_site6979]”, the “gcPBM binding intensity (ln)” value was determined as 8.2.

For “GTTTATTCTTTTTATACACACCTTATTTGATTAACA [CACACA_site4567]”, the “gcPBM binding intensity (ln)” value is 7.32.

Turning to “TATACATAGAAACACACACACATATATATATATATA [CACACA_site2248]”, the “gcPBM binding intensity (ln)” value turned out to be 9.59.

Take “TTACTACTATATTATACACACATATATATATATATA [CACACA_site2621]”: the “gcPBM binding intensity (ln)” value stood at 9.83.

“TTTATTTATGTAGATACACACCCATGTTATATGGAG [CACACA_site9144]”: the “gcPBM binding intensity (ln)” value stood at 7.05.

Regarding “TTCTAATATTTTTGCACACTAAACAATAAATTTCCT [CACACA_site3944]”, the “gcPBM binding intensity (ln)” value worked out at 7.66.

In the case of “TGTGAATAAATAAGCACACATAAACACATATATAAA [CACACA_site6114]”, the “gcPBM binding intensity (ln)” value is 7.02.

As to “TTAAAAGAAAAAATATGTACATATATTATATATATC [XGTACX_site7009]”, the “gcPBM binding intensity (ln)” value amounted to 7.24.

For the sequence “AGCAAAAATTAAATAAATAAATATATATATATATAT [TGCATGCA_negctrl_site449]”, the “gcPBM binding intensity (ln)” value is 9.26.

For “GCAACATTCTAAGACACACACACACCCATATATATA [CACACA_site1053]”, the “gcPBM binding intensity (ln)” value stood at 7.46.

For the sequence “AATGATGTCATAGGGGGTACACATAAATGTGAATGT [XGTACX_site6745]”, the “gcPBM binding intensity (ln)” value came out at 7.65.

For “ATATTAATAATATATACACACATAAGTATTGTATAT [CACACA_site4095]”, the “gcPBM binding intensity (ln)” value came out at 6.97.

As to “AATAATATATATATATATATATATAGATATGTATAT [GTGCAC_negctrl_site653]”, the “gcPBM binding intensity (ln)” value was 7.68.

Consider “ATGTTAACTAAATGTACACACCTATGTTGATGTAAC [CACACA_site5073]”, for which the “gcPBM binding intensity (ln)” value came to 7.17.

Take “TATATATATAAAATATGTACATAAAATTATTTATTT [XGTACX_site7666]”: the “gcPBM binding intensity (ln)” value was determined as 7.83.

Turning to “AAAGTTTAAATGAGAAGTACAAATTTTTGTTTTTAT [XGTACX_site1844]”, the “gcPBM binding intensity (ln)” value stood at 6.79.

As for “ATATAAAGTATGTTAGTGCACTTTTTTTTTTTTTTT [GTGCAC_site9419]”, the “gcPBM binding intensity (ln)” value was 11.2.

Turning to “GTAATACACATATAATGTACTCATAAATATATTTAT [XGTACX_site4041]”, the “gcPBM binding intensity (ln)” value worked out at 7.06.

Turning to “TCATAGGAGAACTTTTGTACAGATTTTTCTTTTTTT [XGTACX_site2853]”, the “gcPBM binding intensity (ln)” value turned out to be 6.51.

In the case of “AATATAAGTGTACATACACACTTTACAATATCATAT [CACACA_site5634]”, the “gcPBM binding intensity (ln)” value came to 7.13.

Turning to “AATTTTATATATATATGTACATATTTATATGCTTAT [XGTACX_site8180]”, the “gcPBM binding intensity (ln)” value worked out at 7.09.

In the case of “TTTCTATATCTTTCAACACACAAATTTTTTTTTCCA [CACACA_site108]”, the “gcPBM binding intensity (ln)” value came out at 6.98.

Source of the values: the supplement of paper PMC11417369.
